Here are results for 58 molecules from PubChem BioAssay AID463173 (ICCB-Longwood Screening Facility, Harvard Medical School, 2010).

About 4,300 (8.3%) of roughly 52,000 compounds were called active. Cut-off read from the data, not from the text of the source: active = survival mostly below about 52% (no sharp cut-off); inactive = mostly above about 56%. The list shows a part of the results.

In the assay the test system is DeltatarO mutant. Kind of assay: S. aureus survival, RN4220 and DeltatarO strains – OD600, teichoic acid synthesis inhibitors, primary screen (AID 463173). The note with it: S. aureus RN4220 wild type/DeltatarO growth, OD600, 18 h, active compounds read low, screened at 18.75 µg/mL (by protocol).
With `Cc1ccc(NC(=O)Cn2c(=O)c3ccc(Cl)cc3n3nncc23)cc1`, the survival is inactive: 89%.

As to `COc1cccc(-c2csc(-c3c(N)c(C(=O)c4ccc5c(c4)OCO5)n4ccccc34)n2)c1`, the survival is inactive: 70%.

For the molecule `CCOc1ccc(C2C(C(=O)Nc3ccccc3)=C(C)Nc3nc(-c4ccccc4)nn32)cc1OC` (stereo not drawn), the survival was inactive: 90%.

`CCCNC(=O)c1ccc(N2C(=O)c3ccccc3C2=O)cc1`: the survival was inactive: 80%.

On to `O=C(Cn1c(-c2cccs2)cc2ccccc21)N1CCN(c2ccc(Cl)cc2)CC1`, for which the survival was inactive: 80%.

As for `COc1cc(Cl)c(C)cc1NC(=O)c1cc(S(=O)(=O)N2CCCC2)ccc1F`, the survival was active: 37%.

Turning to `Cc1ccc(Cc2cnc(NC(=O)c3ccc4c(c3)CC(c3ccccc3)OC4=O)s2)cc1` (stereo not drawn), the survival is inactive: 107%.

As for `O=C(NC1CC(=O)N(c2ccc(F)cc2)C1)C1CCCC1` (stereo not drawn), the survival was inactive: 76%.

Regarding `Cc1c(C(=O)Nc2ccc(F)cc2F)oc2c1-c1nn(Cc3c(F)cccc3Cl)cc1CC2`, the survival is inactive: 73%.

`CCOC(=O)c1c(NC(=O)c2ccc(C)cc2)sc2c1CCCCC2`: the survival is active: -2%.

In the case of `COc1ccc(C)cc1NC(c1nnc(-c2ccccc2)o1)c1ccc(F)cc1Cl` (stereo not drawn), the survival is active: -3%.

Turning to `CC(=O)c1ccc(S(=O)(=O)Nc2ccc(-c3cn4c(C)csc4n3)cc2)cc1`, the survival was active: -5%.

Take `N#Cc1ccccc1NC(=O)CSc1nc(-c2ccccc2)cc(C(F)(F)F)c1C#N`: the survival was inactive: 57%.

`Nn1c(-c2ccccc2)cn2c(cc3sccc32)c1=S`: the survival was inactive: 99%.

On to `CCc1ccc(N2CC(c3nnc(NC(=O)c4ccco4)s3)CC2=O)cc1` (stereo not drawn), for which the survival was inactive: 84%.

`CCOC(=O)Cc1ccc(NC(=O)N(Cc2ccc(OC)cc2)C2CCN(C(C)=O)CC2)cc1`: the survival is inactive: 88%.

As to `Nc1cc(N)nc(SCc2ccc(Cl)cc2)n1`, the survival was inactive: 84%.

On to `CCOC(=O)c1c(NC(=O)/C(C#N)=C/c2ccc(OC)cc2)sc2c1CCC2`, for which the survival is inactive: 86%.

With `CC1(C)Cc2c(c(N3CCNCC3)[nH]c(=S)c2C#N)CO1`, the survival was inactive: 114%.

Take `Cc1cccc(C)c1OCC(=O)N(Cc1ccccc1F)C1CCS(=O)(=O)C1` (stereo not drawn): the survival was inactive: 59%.

For `CCc1ccc(NC(=O)c2sc(-n3nc(C)c(CCC(C)C)c3C)nc2C)cc1`, the survival is inactive: 112%.

Take `COc1ccc(NC(=O)c2ccc3oc(=O)c(S(=O)(=O)c4ccc(F)cc4)cc3c2)cc1OC`: the survival was inactive: 62%.

Take `Cc1cc(NC(=O)c2ccccc2F)ccc1-c1nc2ccccc2s1`: the survival was inactive: 74%.

Take `Cc1ccc(-n2cnc3cc(C(=O)NCCC4=CCCCC4)ccc32)c(C)c1`: the survival was inactive: 69%.

`COC(=O)c1ccc(S(N)(=O)=O)o1`: the survival was inactive: 76%.

As for `CC1CCN(c2nc(-c3ccc(C(C)(C)C)cc3)nc3ccccc23)CC1`, the survival is active: 6%.

Consider `O=C(CSc1nc2ccsc2c(=O)n1-c1ccc(Cl)cc1)NCc1ccc(Cl)cc1`, for which the survival is inactive: 91%.

In the case of `CCOc1ccc(NC(=O)c2cc3cc(C)ccc3n2C)cc1`, the survival is inactive: 61%.

`CC(C)CNC(=O)Nc1cc(C(=O)NCc2ccc(C(C)C)cc2)ccc1N1CCCC1`: the survival is inactive: 86%.

For the molecule `CCC(=O)N1CCc2cc(S(=O)(=O)NCCC(=O)Nc3ccc(CC)cc3)ccc21`, the survival was inactive: 78%.

As to `COC(=O)C1(c2ccccc2)NC(c2ccc(O)cc2)C2C(=O)N(c3ccc4c(c3)OCCO4)C(=O)C21` (stereo not drawn), the survival is inactive: 75%.

Consider `CCN1C(=O)C(C(=O)NC(C)c2ccccc2)C2CC1(C)Oc1ccccc12` (stereo not drawn), for which the survival was inactive: 72%.

Take `Clc1ccc(-c2cc3ncc4c(n3n2)-c2ccccc2OC4)cc1`: the survival is inactive: 81%.

As to `O=C(Nc1ccccc1-c1nc2ccccc2s1)c1ccc(F)cc1`, the survival is inactive: 81%.

Consider `COc1ccc(CCNc2nc3c(-c4cccc(C(F)(F)F)c4)nnn3c3ccccc23)cc1OC`, for which the survival is inactive: 85%.

Consider `Cc1ccc(CN2CCCn3nc(C(=O)NCc4ccc(N(C)C)cc4)cc3C2=O)cc1`, for which the survival is inactive: 80%.

Take `COc1cc(Nc2ncc3c(n2)CCN(Cc2ccc(OC(C)C)c(OC)c2)C3)cc(OC)c1`: the survival was inactive: 117%.

Regarding `Cc1ccc(C(=O)Nc2nnc(S(=O)(=O)N(C)Cc3ccc(Cl)cc3)s2)cc1`, the survival was inactive: 99%.

With `CCc1nn2c(=O)cc(COC(=O)c3ccc(NC(=O)COc4ccccc4C)cc3)nc2s1`, the survival was inactive: 79%.

Regarding `COc1ccc(NC(=O)c2csnn2)cc1Cl`, the survival is inactive: 86%.

As to `COc1ccccc1NC(=O)CSc1oc(-c2ccco2)nc1S(=O)(=O)c1ccc(C)cc1`, the survival is inactive: 66%.

As to `CCOc1ccc(NC(=O)c2oc3ccccc3c2NC(=O)C(C)(C)C)cc1`, the survival is active: 38%.

On to `O=C(CC1N=C2c3ccccc3N=C(SCC(=O)Nc3ccc(F)cc3)N2C1=O)NCc1ccco1` (stereo not drawn), for which the survival is inactive: 75%.

Turning to `CCOc1ccc2nc(N3CCCC(C(=O)Nc4ccc(OC)cc4)C3)sc2c1` (stereo not drawn), the survival was inactive: 60%.

Turning to `COc1cccc(CNC(=O)C2CCN(S(=O)(=O)c3c(C)noc3/C=C/c3cccs3)CC2)c1`, the survival is inactive: 71%.

Turning to `O=C(NCCc1csc(-c2cccc(F)c2)n1)C(=O)Nc1cc(F)ccc1F`, the survival was inactive: 84%.

Regarding `Cc1ccc(C)c(NC(=O)Cc2coc3cc(C)cc(C)c23)c1`, the survival is inactive: 54%.

As to `O=C(c1cc2ccc3cccnc3c2[nH]1)N1CCCCC1`, the survival is inactive: 69%.

On to `CCc1ccccc1NC(=O)Cn1nnc2sc3c(c2c1=O)CCC(C(C)(C)C)C3` (stereo not drawn), for which the survival is active: 47%.

Regarding `COc1ccc(C)cc1NS(=O)(=O)c1cnc(N)nc1`, the survival was inactive: 76%.

Consider `O=C(c1noc2c1CCCCC2)N1CCN(c2cccc(Cl)c2)CC1`, for which the survival is inactive: 69%.

For the molecule `O=C(Cn1ncc2c3ccccc3n(Cc3ccccc3F)c2c1=O)N1CCCCCC1`, the survival was inactive: 70%.

In the case of `CCN1CCN(c2nnc(-n3cccc3C(=O)NCc3ccccc3OC)s2)CC1`, the survival is active: 46%.

Take `Cc1ccc(C(C(=O)NCc2ccccc2)N(C(=O)c2snc(C(N)=O)c2N)c2ccc3c(c2)OCCO3)o1` (stereo not drawn): the survival was inactive: 62%.

In the case of `COc1ccc(NC(=O)C2CCN(C3=NS(=O)(=O)C(c4ccc(C)c(C)c4)=C3C)CC2)c(OC)c1`, the survival was inactive: 91%.

With `Cc1ccccc1OC(=O)c1cc(-c2ccc3c(c2)OCCO3)on1`, the survival is active: -1%.

On to `Cc1nn(Cc2ccccc2)c(C)c1CC(=O)O`, for which the survival is inactive: 92%.

Regarding `COC(=O)C1=NNC2C(=O)N(c3ccccc3C(F)(F)F)C(=O)C12` (stereo not drawn), the survival was inactive: 77%.
